{"source": "the supplement of paper PMC3334620", "note": "The full ranking holds about 33,000 sequences; the median of “E-score (-0.5 to 0.5)” is about -0.056, and the highest 2% start at about 0.38. This is one part of the list."}
{"target": "Stb4 (UniProt P50104)", "experiment": "PBM E-score (8-mer binding enrichment) (E-score (-0.5 to 0.5)); higher = stronger / more preferred TF binding; most listed sequences are background and not binding sites", "conditions": "protein concentration: 200 nM; construct: GST-DNA-binding domain", "summary_of_the_method": "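E-scores (a modified Wilcoxon-Mann-Whitney statistic) were assigned by the Universal PBM Analysis Suite to every ungapped eight-base word pooled with its reverse complement. The input came from universal all-10-mer Agilent arrays made double-stranded by primer extension and probed with GST-tagged yeast transcription factors at about 100-200 nM. Fluorescent anti-GST detected bound protein, and masliner normalised the scans.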"}
{"sequence": "CATCAGCC", "PBM E-score": 0.0277}
{"sequence": "ACCTCCTG", "PBM E-score": -0.279}
{"sequence": "AAACTCGG", "PBM E-score": 0.419}
{"sequence": "ACCCTGGG", "PBM E-score": -0.051}
{"sequence": "CCAGCCAG", "PBM E-score": -0.073}
{"sequence": "AGATATTA", "PBM E-score": 0.054}
{"sequence": "TACCTTCA", "PBM E-score": -0.121}
{"sequence": "AGACGCCA", "PBM E-score": -0.292}
{"sequence": "GCGATCCA", "PBM E-score": -0.159}
{"sequence": "ACCTGGGG", "PBM E-score": -0.33}
{"sequence": "CCGCTTAA", "PBM E-score": 0.0858}
{"sequence": "CGACGCCC", "PBM E-score": 0.203}
{"sequence": "TAAGAGTA", "PBM E-score": -0.0965}
{"sequence": "CTGCATTA", "PBM E-score": -0.0989}
{"sequence": "CCAGAGGC", "PBM E-score": -0.289}
{"sequence": "CATGATCA", "PBM E-score": -0.105}
{"sequence": "AGGCTATA", "PBM E-score": -0.125}
{"sequence": "GGACTGGA", "PBM E-score": -0.198}
{"sequence": "ACGAACGG", "PBM E-score": 0.0948}
{"sequence": "AATAGAGA", "PBM E-score": -0.145}
{"sequence": "CAAGCGAG", "PBM E-score": 0.0404}
{"sequence": "CATCCCCA", "PBM E-score": -0.122}
{"sequence": "GCATAGAA", "PBM E-score": 0.0466}
{"sequence": "CATTAATA", "PBM E-score": -0.0256}
{"sequence": "ACGTCTCG", "PBM E-score": 0.115}
{"sequence": "GTGGAGTA", "PBM E-score": -0.222}
{"sequence": "AACCGTGG", "PBM E-score": -0.0921}
{"sequence": "ACCCAGTA", "PBM E-score": -0.24}
{"sequence": "CCGCGCGC", "PBM E-score": 0.199}
{"sequence": "CTGCTGCC", "PBM E-score": -0.157}
{"sequence": "GGTAGACA", "PBM E-score": 0.0106}
{"sequence": "ATCTCTTA", "PBM E-score": 0.059}
{"sequence": "ATGTGCAC", "PBM E-score": -0.047}
{"sequence": "AGAGTCCC", "PBM E-score": -0.0943}
{"sequence": "AAGCAGCT", "PBM E-score": -0.0723}
{"sequence": "CCTCCCGC", "PBM E-score": 0.133}
{"sequence": "ACAGGACC", "PBM E-score": -0.0508}
{"sequence": "AGCACGAG", "PBM E-score": -0.0473}
{"sequence": "GGTATCAA", "PBM E-score": 0.031}
{"sequence": "AGGGATCC", "PBM E-score": 0.163}
{"sequence": "ATGTCGCG", "PBM E-score": 0.0443}
{"sequence": "CGAGAACG", "PBM E-score": 0.206}
{"sequence": "GCTGACCA", "PBM E-score": 0.0997}
{"sequence": "GCGAGACC", "PBM E-score": -0.0423}
{"sequence": "ACTTGTTC", "PBM E-score": -0.0214}
{"sequence": "AATGAATT", "PBM E-score": -0.0341}
{"sequence": "GAAGAACC", "PBM E-score": 0.115}
{"sequence": "CAGGTACC", "PBM E-score": 0.055}
{"sequence": "GAAGCGTC", "PBM E-score": -0.1}
{"sequence": "CCTCCTCG", "PBM E-score": -0.0782}
{"sequence": "GAACGGGC", "PBM E-score": -0.0646}
{"sequence": "AGTCTGCG", "PBM E-score": -0.292}
{"sequence": "GTTGGGGA", "PBM E-score": -0.0878}
{"sequence": "AGTGGGTA", "PBM E-score": 0.157}
{"sequence": "CACATGGG", "PBM E-score": -0.101}
{"sequence": "AGCATCCC", "PBM E-score": 0.0749}
{"sequence": "AGACCGAT", "PBM E-score": 0.0617}
{"sequence": "CACGCAGA", "PBM E-score": -0.154}
{"sequence": "ACTACAAC", "PBM E-score": -0.0348}
{"sequence": "TATGGGAA", "PBM E-score": -0.034}
{"sequence": "AAAAACGA", "PBM E-score": -0.133}
{"sequence": "TCTCCGCA", "PBM E-score": 0.147}
{"sequence": "GCAAGCCC", "PBM E-score": -0.0367}
{"sequence": "ATAGCAAA", "PBM E-score": -0.162}
{"sequence": "CATGCGGC", "PBM E-score": 0.00229}
{"sequence": "GTATGAGA", "PBM E-score": 0.0301}
{"sequence": "ATGAGGAA", "PBM E-score": -0.0309}
{"sequence": "AAGCGCGG", "PBM E-score": 0.03}
{"sequence": "CCAAGCGA", "PBM E-score": -0.246}
{"sequence": "CCCGACAC", "PBM E-score": 0.312}
{"sequence": "ATCCCATA", "PBM E-score": 0.051}
{"sequence": "CAAGTTGG", "PBM E-score": -0.17}
{"sequence": "CATGGTCC", "PBM E-score": -0.0446}
{"sequence": "ATACTGCG", "PBM E-score": -0.106}
{"sequence": "AGTCACAA", "PBM E-score": -0.173}
{"sequence": "ATTTTTGC", "PBM E-score": 0.0861}
{"sequence": "GCGTGAGA", "PBM E-score": -0.17}
{"sequence": "AACCTTTC", "PBM E-score": 0.07}
{"sequence": "ATTGTCGG", "PBM E-score": 0.357}
{"sequence": "CGGAAAAG", "PBM E-score": 0.373}
{"sequence": "AAGAGAGT", "PBM E-score": -0.168}
{"sequence": "AACCAGCA", "PBM E-score": -0.169}
{"sequence": "CCACAACC", "PBM E-score": -0.0387}
{"sequence": "CTAGAGCC", "PBM E-score": -0.0985}
{"sequence": "CACTCTCC", "PBM E-score": 0.0418}
{"sequence": "CCTTAATA", "PBM E-score": -0.095}
{"sequence": "ACTGGTGA", "PBM E-score": -0.226}
{"sequence": "CCCCCCCA", "PBM E-score": -0.243}
{"sequence": "GATGCATA", "PBM E-score": 0.025}
{"sequence": "GGTACAGA", "PBM E-score": 0.0691}
{"sequence": "CAAGATAG", "PBM E-score": -0.105}
{"sequence": "CATCCTGC", "PBM E-score": -0.05}
{"sequence": "GCGATTAC", "PBM E-score": -0.0382}
{"sequence": "CCACTCAC", "PBM E-score": -0.181}
{"sequence": "GACCGCGA", "PBM E-score": 0.0256}
{"sequence": "GCCTGGTA", "PBM E-score": -0.265}
{"sequence": "ACCACACG", "PBM E-score": -0.122}
{"sequence": "CATGGAGG", "PBM E-score": -0.26}
{"sequence": "CTAGCGCC", "PBM E-score": -0.224}
{"sequence": "GGTCTAAC", "PBM E-score": 0.0261}
{"sequence": "GCCGAGAA", "PBM E-score": 0.406}
{"sequence": "AGTTTCTA", "PBM E-score": -0.151}
{"sequence": "CTTTCAGC", "PBM E-score": -0.0513}
{"sequence": "CGGCTATA", "PBM E-score": 0.325}
{"sequence": "AACCCCTT", "PBM E-score": -0.136}
{"sequence": "TCGATTAA", "PBM E-score": -0.0064}
{"sequence": "AGTGCGCC", "PBM E-score": -0.131}
{"sequence": "CAAGCACC", "PBM E-score": -0.232}
{"sequence": "CTTACCTA", "PBM E-score": -0.121}
{"sequence": "GACTCGAC", "PBM E-score": 0.0122}
{"sequence": "CTCCAAAA", "PBM E-score": -0.248}
{"sequence": "ATTTGGTC", "PBM E-score": -0.00158}
{"sequence": "ACATAACC", "PBM E-score": 0.137}
{"sequence": "ACGCATCC", "PBM E-score": 0.147}
{"sequence": "CAGCGTGG", "PBM E-score": -0.209}
{"sequence": "CCTTTTGA", "PBM E-score": -0.0576}
{"sequence": "AAGTGTGC", "PBM E-score": -0.0418}
{"sequence": "CACTACCA", "PBM E-score": -0.0381}
{"sequence": "GCTGTTAC", "PBM E-score": 0.0172}
{"sequence": "AACCAACT", "PBM E-score": -0.112}
{"sequence": "GTAGAGAC", "PBM E-score": -0.206}
{"sequence": "GATTAGAA", "PBM E-score": -0.071}
{"sequence": "CTTCAGAC", "PBM E-score": -0.227}
{"sequence": "CTATGTTA", "PBM E-score": 0.122}
{"sequence": "CATGTACA", "PBM E-score": -0.222}
{"sequence": "CCGTTTAC", "PBM E-score": 0.122}
{"sequence": "GCGTACAA", "PBM E-score": -0.25}
{"sequence": "CACGGCTC", "PBM E-score": 0.174}
{"sequence": "ACTATGCG", "PBM E-score": 0.0389}
{"sequence": "CTCGCATC", "PBM E-score": -0.0767}
{"sequence": "ATGACCTC", "PBM E-score": -0.232}
{"sequence": "AATGGTCT", "PBM E-score": -0.0529}
{"sequence": "AGCATGAA", "PBM E-score": -0.15}
{"sequence": "GGGCAAGA", "PBM E-score": 0.168}
{"sequence": "ACTCAGCG", "PBM E-score": -0.149}
{"sequence": "GAGTAGGA", "PBM E-score": -0.171}
{"sequence": "CAACTAGA", "PBM E-score": -0.182}
{"sequence": "AAGATATC", "PBM E-score": -0.0458}
{"sequence": "CTATTTGC", "PBM E-score": -0.145}
{"sequence": "CCTCGTTA", "PBM E-score": -0.245}
{"sequence": "CGCACTTC", "PBM E-score": 0.09}
{"sequence": "AAATTACA", "PBM E-score": 0.0466}
{"sequence": "CTTATATA", "PBM E-score": -0.00875}
{"sequence": "GCGGCTTA", "PBM E-score": 0.0783}
{"sequence": "GTCAAATA", "PBM E-score": -0.106}
{"sequence": "AACTGCGC", "PBM E-score": -0.135}
{"sequence": "AGGGGAAA", "PBM E-score": -0.0331}
{"sequence": "AATTGGCG", "PBM E-score": -0.155}
{"sequence": "CCGTGACG", "PBM E-score": 0.0932}
{"sequence": "AAGATTTG", "PBM E-score": -0.0201}
{"sequence": "CAACGTCC", "PBM E-score": -0.0242}
{"sequence": "GATGATGA", "PBM E-score": 0.0102}
{"sequence": "GTAGCCAC", "PBM E-score": -0.128}
{"sequence": "ATTACTCC", "PBM E-score": 0.109}
{"sequence": "AAGATTGT", "PBM E-score": -0.0946}
{"sequence": "ACCGTTAA", "PBM E-score": -0.0758}
{"sequence": "GAGTTTGA", "PBM E-score": -0.0453}
{"sequence": "ACCTGGCC", "PBM E-score": 0.0173}
{"sequence": "CATATACG", "PBM E-score": -0.0237}
{"sequence": "ACGGAAAC", "PBM E-score": 0.375}
{"sequence": "AACAAGGA", "PBM E-score": -0.0209}
{"sequence": "CCTGGGCG", "PBM E-score": -0.232}
{"sequence": "GGAGCTCC", "PBM E-score": 0.0821}
{"sequence": "ATTTATCG", "PBM E-score": -0.00851}
{"sequence": "CGAGTGCC", "PBM E-score": 0.0577}
{"sequence": "AAGAGGCT", "PBM E-score": -0.271}
{"sequence": "ACATCTTC", "PBM E-score": 0.0818}
{"sequence": "GGTCGGCA", "PBM E-score": 0.353}
{"sequence": "GATCGCGC", "PBM E-score": -0.0346}
{"sequence": "TCCCTAGA", "PBM E-score": -0.218}
{"sequence": "CGTTCATA", "PBM E-score": -0.204}
{"sequence": "CAACCTGA", "PBM E-score": -0.299}
